# Measurements from PMC4336329 (PLoS ONE, 2015).
# Hit rate of the full screen: of about 310,000 compounds, about 14,000 (4.5%) showed an effect of 50% or more. Effects have a minus sign here. The list shows a part of the results.
# Biological target: human ether-à-go-go-related gene (hERG) potassium channel (human, UniProt Q12809)
# Assay: primary screen, population patch clamp on CHO cells stably expressing hERG
# 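Note: peak tail current of the secondary pulse compared with the same well before compound.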
# human ether-à-go-go-related gene (hERG) potassium channel, sequence (Q12809 whole entry, looked up): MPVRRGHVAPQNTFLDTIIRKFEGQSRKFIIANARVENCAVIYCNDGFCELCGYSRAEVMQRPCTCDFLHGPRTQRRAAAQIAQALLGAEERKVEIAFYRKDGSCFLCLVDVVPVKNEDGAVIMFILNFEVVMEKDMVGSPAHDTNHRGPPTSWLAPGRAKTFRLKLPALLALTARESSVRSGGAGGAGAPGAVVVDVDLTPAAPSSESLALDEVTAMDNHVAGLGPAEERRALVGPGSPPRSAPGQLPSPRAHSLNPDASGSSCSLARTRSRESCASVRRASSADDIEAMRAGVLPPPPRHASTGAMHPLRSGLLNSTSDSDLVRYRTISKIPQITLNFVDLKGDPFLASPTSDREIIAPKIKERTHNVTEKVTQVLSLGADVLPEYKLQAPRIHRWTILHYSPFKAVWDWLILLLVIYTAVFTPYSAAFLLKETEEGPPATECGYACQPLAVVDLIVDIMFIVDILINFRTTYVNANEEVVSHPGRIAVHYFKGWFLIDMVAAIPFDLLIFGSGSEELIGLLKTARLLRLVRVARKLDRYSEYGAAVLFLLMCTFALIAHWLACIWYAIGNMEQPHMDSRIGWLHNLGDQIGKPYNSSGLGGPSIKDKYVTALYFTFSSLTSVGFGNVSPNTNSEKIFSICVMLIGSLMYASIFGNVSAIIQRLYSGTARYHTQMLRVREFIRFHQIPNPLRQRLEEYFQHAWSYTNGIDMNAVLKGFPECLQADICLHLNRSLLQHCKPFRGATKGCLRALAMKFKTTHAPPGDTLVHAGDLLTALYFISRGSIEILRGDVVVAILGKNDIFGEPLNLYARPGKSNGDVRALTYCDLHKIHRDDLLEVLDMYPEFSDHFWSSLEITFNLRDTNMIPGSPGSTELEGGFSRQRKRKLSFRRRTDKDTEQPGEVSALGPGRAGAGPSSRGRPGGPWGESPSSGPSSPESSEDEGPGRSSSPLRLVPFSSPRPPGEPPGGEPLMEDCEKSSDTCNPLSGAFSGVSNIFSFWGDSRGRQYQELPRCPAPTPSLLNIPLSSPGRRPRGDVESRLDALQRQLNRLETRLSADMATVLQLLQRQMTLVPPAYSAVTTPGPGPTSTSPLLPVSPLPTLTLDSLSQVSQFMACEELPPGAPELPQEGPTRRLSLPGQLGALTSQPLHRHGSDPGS
row,SMILES,"hERG current change (%, negative = inhibition) at 10uM [%]"
1,Cc1ccc(S(=O)(=O)c2nnn3c2nc(N2CCN(c4ccccn4)CC2)c2ccccc23)cc1C,2.74
2,CCCNc1nc(-c2ccccc2)c(C(=O)OCC)cc1C#N,-13.4
3,O=C(CN1CCCCC1)Nc1ccc(NC(=O)c2ccc(Cl)cc2)cc1Cl,13.7
4,Cn1c(SCc2cccnc2)nnc1-c1c[nH]c2ccccc12,-5.78
5,O=C1[C@H]2[C@@H](c3ccc(Cl)cc3)N3C(=O)N(c4cccc(F)c4)C(=O)[C@@]3(Cc3ccc(Cl)cc3)[C@H]2C(=O)N1C1CCCCC1,8.25
6,CCn1nnnc1SCC(=O)Nc1ccc2c(c1)OCO2,6.66
7,O=C(O)c1ccccc1/C=N/N1CCN(C2c3ccccc3-c3ccccc32)CC1,-18.7
8,COc1cccc(CNC(=O)Cc2ccc(NC3=NC4CS(=O)(=O)CC4S3)cc2)c1 (centres unmarked),8.9
9,COc1ccc(COn2nnc3ccc(S(=O)(=O)N4CCOCC4)cc32)cc1F,-40.8
10,COc1ccc(OCc2nc(N)nc(Nc3ccccc3)n2)cc1,-4.98
11,CCOC(=O)C(C)Sc1snnc1C (centres unmarked),8.98
12,COc1ccc(C(C(=O)NC(C)(C)C)N(C(=O)CCC(=O)Nc2cc(C)on2)c2cc(C)cc(C)c2)cc1 (centres unmarked),-5.36
13,COc1ccc(-c2noc(CCC(=O)Nc3ccc(C)c(C)c3)n2)cc1,0.384
14,COc1ccc(C(=O)N2CCN(Cc3cc(OC)c(O)c(OC)c3)CC2)cc1OC.O=C(O)C(=O)O,8.89
15,Cc1nc2ccc(NC(=O)c3ccc(N4C(=O)CCC4=O)cc3)cc2s1,17.1
16,CC(C)(C)NC(=O)COC(=O)/C=C/c1ccccc1[N+](=O)[O-],9.61
17,FC(F)(F)c1cccnc1-n1cncn1,10.7
18,CCOC(=O)C1=C(O)/C(=C/c2ccc(OCC(=O)Nc3ccc(C)cc3)cc2)N=C1C,10.6
19,O=C(CN1CCC(C(=O)c2ccc3c(c2)OCCO3)CC1)NCc1ccc(F)cc1,-30.2
20,COc1ccc(OC)c(Nc2cc(C)c3ccccc3n2)c1,2
21,CC(=O)Oc1cccc(/C=C2\C=C(c3ccc(C)cc3)OC2=O)c1,15
22,COc1ccc(Cc2c(O)nc(SCC(=O)N3CCOCC3)[nH]c2=O)cc1,9.05

row,SMILES,"hERG current change (%, negative = inhibition) at 10uM [%]"
1,Cc1nn(CC(=O)NCc2cccnc2)c(C)c1[N+](=O)[O-],8.85
2,Cc1noc(C)c1S(=O)(=O)Nc1ccc(C(=O)NCc2ccccc2)cc1,-0.378
3,OCC1C2c3ccccc3C(c3ccccc32)C1CO (centres unmarked),4.25
4,Nc1ncc(-c2ccccc2)n1CC1CCCO1 (centres unmarked),-7.62
5,O=C1CCCC(O)=C1C1C2=C(CCCC2=O)OC2=C1C(=O)CCC2,19
6,O=C(c1ccccc1)N1CCN(S(=O)(=O)N2CCCCCC2)CC1,4.44
7,O=C(N/N=C/c1ccncc1)c1ccccn1,13.7
8,CCOC(=O)c1nc(-c2ccccc2)oc1N(C)C,-3.12
9,CCOC(=O)CCC(=O)Nc1ccc([N+](=O)[O-])cc1C,6.89
10,CC(C)CNC(=O)c1cc2nc(C3CC3)cc(C(F)(F)F)n2n1,6.19
11,CN(C)c1ccc(C(=O)NC2(N3CCC3=O)CCCC2)cc1,21
12,O=C(NCCN1CCN(c2ccccc2)CC1)c1ccc2c(c1)[nH]c(=S)n1c3ccccc3nc21,21.7
13,O=C(c1ccccc1)C1CN(Cc2ccccc2)CCC1(O)c1ccccc1 (centres unmarked),-2.69
14,CCC(C(=O)N1CCC(C(N)=O)CC1)n1nc(C)n2c(cc3occc32)c1=O (centres unmarked),-23.5
15,CS(=O)(=O)NCCCNc1ccc(C(F)(F)F)cc1[N+](=O)[O-],-35.1
16,O=c1c(C=NCCCO)c(-c2ccccc2)[nH]n1-c1nc2ccccc2s1,-72.6
17,Nc1ncc(Br)cc1Br,4.15
18,CCC(CC)C(=O)Nc1ccc(C(=O)c2ccccc2)cc1,-13.3
19,O=C(CN1CCCC1)Nc1ccccc1Sc1ccccc1,-13.5
20,COc1ccccc1CN1CC(C(=O)NC2CCOCC2)CCC1=O (centres unmarked),13.3
21,N=c1c(C(=O)NC2CCCCC2)cc2c(=O)n3ccccc3nc2n1Cc1cccnc1,-73.3
22,O=C(NCCc1cccc(Cl)c1)c1cccc([N+](=O)[O-])c1,-15.7

row,SMILES,"hERG current change (%, negative = inhibition) at 10uM [%]"
1,COc1cccc(NC(=S)N(CCc2ccc(OC)c(OC)c2)Cc2ccccn2)c1,-41
2,CCOc1ccccc1N1CCN(c2nc3ccccc3nc2C(C#N)C(=O)OC)CC1 (centres unmarked),10.7
3,COc1ccccc1NC(=O)c1ccc2snnc2c1,-18.3
4,COCCN1CCN(C(=O)C2CCC(=O)N(CCc3ccccc3)C2)CC1 (centres unmarked),5.79
5,Cc1c(NS(=O)(=O)c2cccc(C(=O)O)c2)c(=O)n(-c2ccccc2)n1C,-0.297
6,Cl.OCC(CO)(CO)NCc1ccc(-c2ccccc2)cc1,-0.626
7,Nc1scc2c(C(=O)N/N=C/c3ccc(Cl)cc3)nn(-c3ccccc3)c(=O)c12,-7.61
8,O=C(c1cn(CC(=O)N2CCCC2)c2ccccc12)C1CCCCC1,-14.5
9,c1ccc(-c2noc(-c3cccc4ccccc34)n2)nc1,1.58
10,COc1ccc(-n2nc(C(=O)NCC(=O)Nc3cccc(NC(C)=O)c3)c3ccccc3c2=O)cc1,16.1
11,O=C(c1cnn2c(C(F)(F)F)cc(-c3ccco3)nc12)N1CCc2ccccc2C1,-8.6
12,O=C1NC(=O)C(=Cc2ccc(-c3ccc(Cl)cc3)o2)C(=O)N1,9.09
13,O=S(=O)(NC1CC1)c1ccc(S(=O)(=O)N2CCCC3(CCCCC3)C2)cc1,12.7
14,Cc1ccc(S(=O)(=O)N(C)C)cc1NC(=O)C(C)N(C)CCOc1ccc(Cl)cc1 (centres unmarked),-26.7
15,CCOC(=O)C1CCN(C(=S)Nc2ccc(CC)cc2)CC1,-10.2
16,O=C(COC(=O)CNC(=O)c1ccccc1F)NC12CC3CC(CC(C3)C1)C2,0.652
17,CCC(CC)C(=O)N=C1SC2CS(=O)(=O)CC2N1CCc1ccc(OC)cc1 (centres unmarked),-20.7
18,CC1=CC(c2ccccc2)n2nc(N3C(=O)C4CC=CCC4C3=O)nc2N1 (centres unmarked),-7.93
19,Cc1cc(CN(C)Cc2cn(C)nc2-c2ccc(Oc3ccccc3)cc2)on1,-10.9
20,CN1CCC(N2CCN(c3cccc(C(F)(F)F)c3)CC2)CC1,-12.8
21,Cc1noc(C)c1CSCC(=O)OCc1nc2ccccc2c(=O)n1CC#N,8.38
22,CCOc1ccc(-n2c(O)c(C=NCCN3CCNCC3)c(=O)[nH]c2=O)cc1,6.99

row,SMILES,"hERG current change (%, negative = inhibition) at 10uM [%]"
1,CC1(NC(=S)Nc2ccc3ccccc3c2)CCS(=O)(=O)C1 (centres unmarked),13.3
2,CCN(CC)C(=O)C1CCN(S(=O)(=O)c2ccc(C3CNC(=O)C3)cc2)CC1 (centres unmarked),7.56
3,COc1ccc(C2/C(=C(\O)c3ccc4c(c3)OCCO4)C(=O)C(=O)N2Cc2ccco2)c(OC)c1 (centres unmarked),-9.64
4,O=C(c1ccccc1)n1nc(-c2ccccc2)nc1NCc1ccco1,8.15
5,Cc1ccn2cc(CNS(=O)(=O)c3ccc(Cl)s3)nc2c1,-26.1
6,CN(/N=C/c1cc(Br)cc(Br)c1O)c1ccccc1,32.8
7,Cc1c(C(=O)N2CCOCC2)[nH]c2c1C(=O)CC(c1ccccc1Cl)C2 (centres unmarked),-23.7
8,COc1ccc(NC(=S)NNc2ccc([N+](=O)[O-])cc2S(=O)(=O)Nc2ccc(C)cc2C)cc1,-7.3
9,CC(C)OC(=O)CC1C(=O)NCCN1C(=O)COc1ccc(C(C)(C)C)cc1 (centres unmarked),9.59
10,COc1ccccc1-c1nnc(SCC(=O)O)n1C,10
11,Cc1nn(CC(=O)N2CCC(N3CCCCC3)CC2)c(=O)c2c1sc1ccccc12,-16.7
12,CCSc1nc2ccccc2n1C(=O)c1ccc(S(=O)(=O)N2CCCCC2)cc1,-24.7
13,O=C(CSc1nnnn1-c1cccc(O)c1)NC1CC1,29.8
14,CCS(=O)(=O)c1ccc(O)c(NC(=O)Nc2ccccc2OC)c1,8.74
15,CC1(C)S[C@@H]2[C@H](NC(=O)Cc3ccccc3)C(=O)N2[C@H]1C(=O)O,7.55
16,S=c1[nH]nc(-c2ccc3ccccc3n2)n1Cc1ccccc1,8.36
17,CN(CC1CCCN(CCc2ccccc2F)C1)C(=O)c1ccoc1 (centres unmarked),-66.7
18,Cc1cc(C)cc(-n2c(C)cc(C(=O)CSc3nnnn3C)c2C)c1,-2.36
19,COc1ccc(N(C(=O)c2ccco2)C(C(=O)NC2CCCC2)c2cccs2)cc1 (centres unmarked),-27.3
20,CCOc1ccc(OCCC(=O)Nc2ccc3c(c2)OCO3)cc1,10.2
